Reference: patent US20200268852A1, “HEMATOPOIETIC RECOVERY FROM RADIATION INJURY” (priority 2013, published 2020)

Tests used:
C57BL/6 mice [1] = experiment: Lymphoid reconstitution, treatment 24 h after SL-TBI; details: spleen after SL-TBI
Procedure: FIGS. 5A-F show SSI administration after SL-TBI enhanced thymic regeneration and peripheral reconstitution. […] Thymi and spleens were analyzed at different time points. FIG. 5A, Absolute number of thymic cellularity and developing thymocytes 7 and 42 days after irradiation. FIG. 5B, Absolute number of thymic stromal cells. FIG. 5C, Total splenocytes and B cells were analyzed at 7, 24 and 48 days after SL-TBI. FIG. 5D, Absolute number of CD4^+ and CD4^+N T cells. FIG. 5E, Absolute number of CD8^+ and CD8^+N T cells. FIG. 5F, Absolute number of fibroblast, and endothelial cells.
We investigated the effects on lymphoid reconstitution when Degarelix was administered 24 h after exposure of SL-TBI. We irradiated B6 male mice and injected them 24 h hours later with vehicle or Degarelix.
We then investigated the effect of post-SL-TBI LHRH-Ant treatment in the peripheral reconstitution. Seven days after SL-TBI splenic cellularity was severity depleted in all groups.
(1 mg/mouse) in 100 ul. […] (BD Biosciences) or FLOWJO (Treestar Software).

C57BL/6 mice [2] = experiment: Thymic regeneration in untreated (steady-state) young and aged mice; details: young male mice; for mTEChi (MHC class II high medullary thymic epithelial cells) number: day 7 and 14; for thymic cellularity / thymic size: early time points (day 7 and 14) after treatment
[3] = test system: C57BL/6 allo-HSCT recipients; experiment: Thymic and peripheral reconstitution after allo-HSCT
Excerpt: We, and others, have previously shown that SSA using LHRH-Ag promotes recovery from autologous and allo-HSCT (Goldberg et al., 2007; Sutherland et al., 2008). We therefore investigated the effects of LHRH-Ant pretreatment on male C57BL/6 allo-HSCT recipients on thymic and peripheral reconstitution.
Of note, the most abundant populations among these peripheral T cells subsets were naïve T cells, indicating a robust thymopoiesis in LHRH-Ant treated mice compared to controls. Many strategies for boosting immune reconstitution could also undesirably increase the risks of graft-versus-host disease (GVHD) in allo-HSCT recipients. We therefore evaluated the impact of LHRH-Ant treatment using an established murine GVHD model. […] LHRH-Ant treatment therefore enhances thymic output and peripheral T cell function without exacerbating post-transplant complications.

Row | SMILES | total numbers of CD4+ and CD8+ T cells and subsets (C57BL/6 mice [1]) | mTEChi (MHC class II high medullary thymic epithelial cells) number (C57BL/6 mice [2]) | thymic cellularity / thymic size (C57BL/6 mice [2]) | number of peripheral CD4+ and CD8+ T cell subsets ([3]; 3 months after transplant) | thymic cellularity ([3]; day 42, sustained for at least 3 months after transplant)
1 | CC(=O)N[C@H](Cc1ccc2ccccc2c1)C(=O)N[C@H](Cc1ccc(Cl)cc1)C(=O)N[C@H](Cc1cccnc1)C(=O)N[C@@H](CO)C(=O)N[C@@H](Cc1ccc(NC(=O)[C@@H]2CC(=O)NC(=O)N2)cc1)C(=O)N[C@H](Cc1ccc(NC(N)=O)cc1)C(=O)N[C@@H](CC(C)C)C(=O)N[C@@H](CCCCNC(C)C)C(=O)N1CCC[C@H]1C(=O)N[C@H](C)C(N)=O [Degarelix] (Ac-[d2Nal][dPhe(4-Cl)][d3Pal]S[Phe(4-NH2)](Dihydroorotyl(S))[dPhe(4-NHCONH2)]L[Lys(iPr)]P[dA]-NH2) | consistent increasing trend | profound expansion | rapid increase in thymic size | significant increase | significantly increased
2 | CCNC(=O)[C@@H]1CCCN1C(=O)[C@H](CCCNC(=N)N)NC(=O)[C@H](CC(C)C)NC(=O)[C@@H](CC(C)C)NC(=O)[C@H](Cc1ccc(O)cc1)NC(=O)[C@H](CO)NC(=O)[C@H](Cc1c[nH]c2ccccc12)NC(=O)[C@H](Cc1c[nH]cn1)NC(=O)[C@@H]1CCC(=O)N1 [Lupron, leuprolide] | – | initial decrease | dramatic degenerative effect | – | –

Square brackets hold non-standard residues; d marks the D form. Peptide text beside a SMILES is read from it. * marks the point of attachment. dPhe(4-NHCONH2) = NC(=O)Nc1ccc(C[C@@H](N)C(=O)O)cc1; Dihydroorotyl(S) = O=C1C[C@@H](C(=O)*)NC(=O)N1; dPhe(4-Cl) = N[C@H](Cc1ccc(Cl)cc1)C(=O)O; Phe(4-NH2) = Nc1ccc(C[C@H](N)C(=O)O)cc1; d2Nal = N[C@H](Cc1ccc2ccccc2c1)C(=O)O; Lys(iPr) = CC(C)NCCCC[C@H](N)C(=O)O; d3Pal = N[C@H](Cc1cccnc1)C(=O)O
